Experimental data taken from PMC6033897, “Characterization and Validation of a Human 3D Cardiac Microtissue for the Assessment of Changes in Cardiac Pathology” (Scientific Reports, 2018).
Structures can show the parent of a compound that is named as a salt.

Key:
[1] = tested on: cardiac microtissues; assay: Mitochondrial membrane potential (ΔΨm, TMRE imaging) in cardiac microtissues; type: cell-based; details: Homo sapiens, 72 hours, geometric mean
Description: (§1) Cardiac microtissues were stained with fluorescent probes in cell culture media, 40 µl media was removed and 40 µl of 2x multiplexed dye was added back to the well for 30 minutes at 37 °C, 5% CO2. Fluorescent probes used were ER-Tracker blue (2 µM) to measure endoplasmic reticulum (ER) integrity and TMRE (500 nM) to measure mitochondrial membrane potential (ΔΨm). All microtissues were imaged on a Cell Voyager 7000 (YokogawaInc.) and images captured using a 20x objective (Olympus UPLSAPO 0.75 NA, 0.6 mm WD), with a 2 × 2 bin. Plates are imaged live, prior to use the stage temperature was set to 37 °C and CO2 level at 5%. […] Transmitted light images were acquired using a 100 W Halogen lamp as an illumination source. Images were captured over a 60 μm range in the Z-axis with a 5 μm interval between slices. Z-stack images were output as a maximal projection of multiple z-planes.
(§2) Maximum projection images were imported and analysed in the Columbus Platform (v2.7, Perkin Elmer Inc.).

[2] = tested on: cardiac microtissues; assay: ER integrity (ER-Tracker blue imaging) in cardiac microtissues; type: cell-based; details: Homo sapiens, 72 hours, geometric mean
Description: as §1, §2

[3] = tested on: cardiac microtissues; assay: Cellular viability (ATP depletion, CellTiter-Glo) in cardiac microtissues; type: cell-based; details: Homo sapiens, 72 hours, geometric mean
Description: Cellular ATP concentrations were assessed using the CellTiter-Glo® Luminescent Cell Viability Assay as per the manufacturer’s instructions (Promega); for cardiac microtissues 40 µl media was removed prior to the addition of 40 µl CellTiter-Glo® reagent. […] Data from the same treatment on minimum of 3 occasions were averaged to represent the mean ATP measurement.

[4] = tested on: cardiac microtissues; assay: Therapeutic index (IC50 in cardiac microtissues divided by total Cmax); type: cell-based, human

| IC50 [1] | IC50 [2] | SMILES | IC50 [3] | Therapeutic index (TI): lowest IC50 of ΔΨm, ER integrity or ATP depletion / total Cmax [4] |
| --- | --- | --- | --- | --- |
| 5.29 µM | 23.6 µM | CCCCc1oc2ccccc2c1C(=O)c1cc(I)c(OCCN(CC)CC)c(I)c1 [Amiodarone HCl] | 16 µM | – |
| 56.4 µM | 7.82 µM | CN1CCN(C2=Nc3cc(Cl)ccc3Nc3ccccc32)CC1 [Clozapine] | > 100 µM | ≤ 100 times Cmax |
| 6.29 µM | > 50 µM | Cc1ccc(NC(=O)c2ccc(CN3CCN(C)CC3)cc2)cc1Nc1nccc(-c2cccnc2)n1 [Imatinib Mesylate] | 15.8 µM | – |
| > 100 µM | 75 µM | CN(C)CCN(Cc1cccs1)c1ccccn1 [Methapyrilene] | > 100 µM | – |
